# According to the supplement of paper PMC8728848:
# Some of the results follow.
# Legend:
# Assay in all cases: glycan array binding signal (z-score within array); higher = stronger binding
# Conditions in all cases: glycan notation: IUPAC condensed, linker removed
# [1] = target: Glc(a1-2)Glc
# How it was run: (§1)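 The binding signal is a Z-score computed within each array. Data were drawn from 3228 arrays in the Consortium for Functional Glycomics database, restricted to those with a known protein sequence. Scores were averaged over arrays of the same protein sequence at different concentrations or buffers, and over linkers, and negative values can be taken as non-binding.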
# [2] = target: Glc(a1-2)Glc(a1-2)Glc
# How it was run: as §1
# [3] = target: Glc(a1-2)Glc(a1-2)Glc(a1-2)Glc
# How it was run: as §1
# [4] = target: Glc(a1-2)Glc(a1-2)Glc(a1-2)Glc(a1-2)Glc
# How it was run: as §1
# [5] = target: Glc(a1-2)Glc(a1-2)Glc(a1-2)Glc(a1-2)Glc(a1-2)Glc
# How it was run: as §1
# [6] = target: Glc(a1-2)Glc(a1-2)Glc(a1-2)Glc(a1-2)Glc(a1-2)Glc(a1-2)Glc
# How it was run: as §1
# [7] = target: Glc(a1-2)Glc(a1-2)Glc(a1-2)Glc(a1-2)Glc(a1-2)Glc(a1-2)Glc(a1-2)Glc
# How it was run: as §1
# [8] = target: Glc(a1-2)Glc(a1-2)Glc(a1-2)Glc(a1-2)Glc(a1-2)Glc(a1-2)Glc(a1-2)Glc(a1-2)Glc
# How it was run: as §1
# [9] = target: Glc(a1-3)Glc
# How it was run: as §1
# [10] = target: Glc(a1-3)Glc(a1-3)Glc
# How it was run: as §1
# [11] = target: Glc(a1-3)Glc(a1-3)Glc(a1-3)Glc
# How it was run: as §1
# [12] = target: Glc(a1-3)Glc(a1-3)Glc(a1-3)Glc(a1-3)Glc
# How it was run: as §1
# [13] = target: Glc(a1-3)Glc(a1-3)Glc(a1-3)Glc(a1-3)Glc(a1-3)Glc
# How it was run: as §1
# [14] = target: Glc(a1-3)Glc(a1-3)Glc(a1-3)Glc(a1-3)Glc(a1-3)Glc(a1-3)Glc
# How it was run: as §1
# [15] = target: Glc(a1-3)Glc(a1-3)Glc(a1-3)Glc(a1-3)Glc(a1-3)Glc(a1-3)Glc(a1-3)Glc
# How it was run: as §1
# [16] = target: Glc(a1-3)Glc(a1-3)Glc(a1-3)Glc(a1-3)Glc(a1-3)Glc(a1-3)Glc(a1-3)Glc(a1-3)Glc
# How it was run: as §1
# [17] = target: Glc(a1-3)Glc(a1-3)Glc(a1-3)Glc(a1-3)Glc(a1-3)Glc(a1-3)Glc(a1-3)Glc(a1-3)Glc(a1-3)Glc
# How it was run: as §1
# [18] = target: Glc(a1-3)Glc(a1-3)Glc(a1-3)Glc(a1-3)Glc(a1-3)Glc(a1-3)Glc(a1-3)Glc(a1-3)Glc(a1-3)Glc(a1-3)Glc
# How it was run: as §1
# [19] = target: Glc(a1-3)Glc(a1-3)Glc(a1-3)Glc(a1-3)Glc(a1-3)Glc(a1-3)Glc(a1-3)Glc(a1-3)Glc(a1-3)Glc(a1-3)Glc(a1-3)Glc
# How it was run: as §1
# [20] = target: Glc(a1-3)Glc(a1-3)Glc(a1-3)Glc(a1-3)Glc(a1-3)Glc(a1-3)Glc(a1-3)Glc(a1-3)Glc(a1-3)Glc(a1-3)Glc(a1-3)Glc(a1-3)Glc
# How it was run: as §1
# [21] = target: Glc(a1-4)Glc
# How it was run: as §1
# [22] = target: Glc(a1-4)Glc(a1-4)Glc
# How it was run: as §1
# [23] = target: Glc(a1-4)Glc(a1-4)Glc(a1-4)Glc
# How it was run: as §1
# [24] = target: Glc(a1-4)Glc(a1-4)Glc(a1-4)Glc(a1-4)Glc
# How it was run: as §1
# [25] = target: Glc(a1-4)Glc(a1-4)Glc(a1-4)Glc(a1-4)Glc(a1-4)Glc
# How it was run: as §1
# [26] = target: Glc(a1-4)Glc(a1-4)Glc(a1-4)Glc(a1-4)Glc(a1-4)Glc(a1-4)Glc
# How it was run: as §1
# [27] = target: Glc(a1-4)Glc(a1-4)Glc(a1-4)Glc(a1-4)Glc(a1-4)Glc(a1-4)Glc(a1-4)Glc
# How it was run: as §1
# [28] = target: Glc(a1-4)Glc(a1-4)Glc(a1-4)Glc(a1-4)Glc(a1-4)Glc(a1-4)Glc(a1-4)Glc(a1-4)Glc
# How it was run: as §1
# [29] = target: Glc(a1-4)Glc(a1-4)Glc(a1-4)Glc(a1-4)Glc(a1-4)Glc(a1-4)Glc(a1-4)Glc(a1-4)Glc(a1-4)Glc
# How it was run: as §1
# [30] = target: Glc(a1-4)Glc(a1-4)Glc(a1-4)Glc(a1-4)Glc(a1-4)Glc(a1-4)Glc(a1-4)Glc(a1-4)Glc(a1-4)Glc(a1-4)Glc
# How it was run: as §1
# [31] = target: Glc(a1-4)Glc(a1-4)Glc(a1-4)Glc(a1-4)Glc(a1-4)Glc(a1-4)Glc(a1-4)Glc(a1-4)Glc(a1-4)Glc(a1-4)Glc(a1-4)Glc
# How it was run: as §1
# [32] = target: Glc(a1-4)Glc(a1-4)Glc(a1-4)Glc(a1-4)Glc(a1-4)Glc(a1-4)Glc(a1-4)Glc(a1-4)Glc(a1-4)Glc(a1-4)Glc(a1-4)Glc(a1-4)Glc
# How it was run: as §1
# [33] = target: Glc(a1-4)Glc(a1-6)Glc
# How it was run: as §1
# [34] = target: Glc(a1-6)Glc
# How it was run: as §1
# [35] = target: Glc(a1-6)Glc(a1-4)Glc
# How it was run: as §1
# [36] = target: Glc(a1-6)Glc(a1-4)Glc(a1-4)Glc
# How it was run: as §1
# [37] = target: Glc(a1-6)Glc(a1-4)Glc(a1-4)Glc(a1-6)Glc(a1-4)Glc(a1-4)Glc
# How it was run: as §1
# [38] = target: Glc(a1-6)Glc(a1-6)Glc
# How it was run: as §1
# [39] = target: Glc(a1-6)Glc(a1-6)Glc(a1-6)Glc
# How it was run: as §1
# [40] = target: Glc(a1-6)Glc(a1-6)Glc(a1-6)Glc(a1-6)Glc
# How it was run: as §1
# [41] = target: Glc(a1-6)Glc(a1-6)Glc(a1-6)Glc(a1-6)Glc(a1-6)Glc
# How it was run: as §1
# [42] = target: Glc(a1-6)Glc(a1-6)Glc(a1-6)Glc(a1-6)Glc(a1-6)Glc(a1-6)Glc
# How it was run: as §1
# [43] = target: Glc(a1-6)Glc(a1-6)Glc(a1-6)Glc(a1-6)Glc(a1-6)Glc(a1-6)Glc(a1-6)Glc
# How it was run: as §1
# [44] = target: Glc(a1-6)Glc(a1-6)Glc(a1-6)Glc(a1-6)Glc(a1-6)Glc(a1-6)Glc(a1-6)Glc(a1-6)Glc
# How it was run: as §1
# [45] = target: Glc(a1-6)Glc(a1-6)Glc(a1-6)Glc(a1-6)Glc(a1-6)Glc(a1-6)Glc(a1-6)Glc(a1-6)Glc(a1-6)Glc
# How it was run: as §1
# [46] = target: Glc(a1-6)Glc(a1-6)Glc(a1-6)Glc(a1-6)Glc(a1-6)Glc(a1-6)Glc(a1-6)Glc(a1-6)Glc(a1-6)Glc(a1-6)Glc
# How it was run: as §1
# [47] = target: Glc(a1-6)Glc(a1-6)Glc(a1-6)Glc(a1-6)Glc(a1-6)Glc(a1-6)Glc(a1-6)Glc(a1-6)Glc(a1-6)Glc(a1-6)Glc(a1-6)Glc
# How it was run: as §1
# [48] = target: Glc(a1-6)Glc(a1-6)Glc(a1-6)Glc(a1-6)Glc(a1-6)Glc(a1-6)Glc(a1-6)Glc(a1-6)Glc(a1-6)Glc(a1-6)Glc(a1-6)Glc(a1-6)Glc
# How it was run: as §1
# [49] = target: Glc(b1-2)Glc
# How it was run: as §1
# [50] = target: Glc(b1-2)Glc(b1-2)Glc
# How it was run: as §1
# [51] = target: Glc(b1-2)Glc(b1-2)Glc(b1-2)Glc
# How it was run: as §1
# [52] = target: Glc(b1-2)Glc(b1-2)Glc(b1-2)Glc(b1-2)Glc
# How it was run: as §1
# [53] = target: Glc(b1-2)Glc(b1-2)Glc(b1-2)Glc(b1-2)Glc(b1-2)Glc
# How it was run: as §1
# [54] = target: Glc(b1-2)Glc(b1-2)Glc(b1-2)Glc(b1-2)Glc(b1-2)Glc(b1-2)Glc
# How it was run: as §1
# [55] = target: Glc(b1-2)Glc(b1-2)Glc(b1-2)Glc(b1-2)Glc(b1-2)Glc(b1-2)Glc(b1-2)Glc
# How it was run: as §1
# [56] = target: Glc(b1-2)Glc(b1-2)Glc(b1-2)Glc(b1-2)Glc(b1-2)Glc(b1-2)Glc(b1-2)Glc(b1-2)Glc
# How it was run: as §1
# [57] = target: Glc(b1-2)Glc(b1-2)Glc(b1-2)Glc(b1-2)Glc(b1-2)Glc(b1-2)Glc(b1-2)Glc(b1-2)Glc(b1-2)Glc
# How it was run: as §1
# [58] = target: Glc(b1-2)Glc(b1-2)Glc(b1-2)Glc(b1-2)Glc(b1-2)Glc(b1-2)Glc(b1-2)Glc(b1-2)Glc(b1-2)Glc(b1-2)Glc
# How it was run: as §1
binder,measurement,setting,value
"Dectin-1 (Mus musculus), Q6QLQ4 (protein) EYGHNSGRNPEEKDNFLSRNKENHKPTESSLDEKVAPSKASQTTGGFSQPCLPNWIMHGKSCYLFSFSGNSWYGSKRHCSQLGAHLLKIDNSKEFEFIESQTSSHRINAFWIGLSRNQSEGPWFWEDGSAFFPNSFQVRNTAPQESLLHNCVWIHGSEVYNQICNTSSYSICEKEL",glycan array binding signal (z-score),[1],-0.206
same,glycan array binding signal (z-score),[2],-0.206
same,glycan array binding signal (z-score),[3],-0.206
same,glycan array binding signal (z-score),[4],-0.206
same,glycan array binding signal (z-score),[5],-0.206
same,glycan array binding signal (z-score),[6],-0.206
same,glycan array binding signal (z-score),[7],-0.206
same,glycan array binding signal (z-score),[8],-0.177
same,glycan array binding signal (z-score),[9],-0.161
same,glycan array binding signal (z-score),[10],-0.182
same,glycan array binding signal (z-score),[11],-0.182
same,glycan array binding signal (z-score),[12],-0.182
same,glycan array binding signal (z-score),[13],-0.182
same,glycan array binding signal (z-score),[14],-0.182
same,glycan array binding signal (z-score),[15],-0.182
same,glycan array binding signal (z-score),[16],-0.182
same,glycan array binding signal (z-score),[17],0.026
same,glycan array binding signal (z-score),[18],-0.182
same,glycan array binding signal (z-score),[19],-0.182
same,glycan array binding signal (z-score),[20],-0.182
same,glycan array binding signal (z-score),[21],-0.182
same,glycan array binding signal (z-score),[22],0.129
same,glycan array binding signal (z-score),[23],0.094
same,glycan array binding signal (z-score),[24],0.06
same,glycan array binding signal (z-score),[25],-0.182
same,glycan array binding signal (z-score),[26],-0.127
same,glycan array binding signal (z-score),[27],0.137
same,glycan array binding signal (z-score),[28],-0.112
same,glycan array binding signal (z-score),[29],-0.182
same,glycan array binding signal (z-score),[30],-0.17
same,glycan array binding signal (z-score),[31],-0.056
same,glycan array binding signal (z-score),[32],-0.07
same,glycan array binding signal (z-score),[33],0.079
same,glycan array binding signal (z-score),[34],-0.182
same,glycan array binding signal (z-score),[35],0.294
same,glycan array binding signal (z-score),[36],0.353
same,glycan array binding signal (z-score),[37],-0.008
same,glycan array binding signal (z-score),[38],-0.174
same,glycan array binding signal (z-score),[39],-0.182
same,glycan array binding signal (z-score),[40],-0.091
same,glycan array binding signal (z-score),[41],-0.182
same,glycan array binding signal (z-score),[42],-0.165
same,glycan array binding signal (z-score),[43],-0.161
same,glycan array binding signal (z-score),[44],-0.167
same,glycan array binding signal (z-score),[45],-0.177
same,glycan array binding signal (z-score),[46],-0.153
same,glycan array binding signal (z-score),[47],-0.164
same,glycan array binding signal (z-score),[48],-0.174
same,glycan array binding signal (z-score),[49],-0.206
same,glycan array binding signal (z-score),[50],-0.206
same,glycan array binding signal (z-score),[51],-0.206
same,glycan array binding signal (z-score),[52],-0.206
same,glycan array binding signal (z-score),[53],-0.206
same,glycan array binding signal (z-score),[54],-0.206
same,glycan array binding signal (z-score),[55],-0.206
same,glycan array binding signal (z-score),[56],-0.206
same,glycan array binding signal (z-score),[57],-0.206
same,glycan array binding signal (z-score),[58],-0.206
